From PubChem BioAssay AID1347417 (National Center for Advancing Translational Sciences (NCATS), 2020)
Among all 120,000 compounds or so, about 5,300 (4.4%) were called active. The shares of active, inactive and inconclusive entries below differ from those in the screen. Calls follow the shape of the dose curve; as a rule, active = well fitted inhibition curve with a large enough effect; inconclusive = small, poorly fitted or top-dose-only effect; inactive = no such curve, though single readings can be large or run the other way. Potencies of inconclusive entries are doubtful fits and often do not repeat.

experiment: qHTS Primary assay for Inhibitors of Plasmodium falciparum Dd2 growth in vitro; also: nearly all actives have a fitted effect of over 65% in size;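 as to activity, negative = inhibition: plate controls were DMSO vehicle for no effect and reference drug for full effect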; conditions: P. falciparum Dd2 growth, SYBR Green, 72 h; activity, negative = inhibition: at 28.9 µM (top of the series) unless noted; series mostly up to 28.9 µM
In short: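 Infected erythrocytes (Dd2, 0.3% parasitemia, 2.5% hematocrit final) are added to compound in RPMI-1640/Albumax II medium, grown 72 h at 37C in low oxygen, then lysed with saponin/Triton-X containing SYBR Green and read by fluorescence.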
Potency is read from the fitted curve at half-maximal effect; tags tell the direction and shape of the fitted curve.

| SMILES | Potency | activity, negative = inhibition | outcome |
| --- | --- | --- | --- |
| Cc1ccc(CN2C(=O)c3ccccc3S(=O)(=O)c3ccc(C(=O)OCC4CCCO4)cc32)cc1 (stereo unspecified) | inconclusive: 15.8 µM [inhibitor, single point] | – | – |
| O=C(NC1CCCN(c2cc(N3CCCC3)ncn2)C1)c1ccccc1 (stereo unspecified) | – | inactive: -10.7% [at 5.79 µM] | – |
| Cc1nc(-c2ccccc2)cc([C@H]2CN3CC[C@H]2C[C@@H]3CNC(=O)c2ccco2)n1 | – | – | inactive [at 44.1 µM] |
| Cn1c(SCC(=O)Nc2ccc(F)cc2)nc2c([nH]c3ccccc32)c1=O | – | inactive: 17.4% | – |
| Cc1ccc(CN2C[C@@H](NC(=O)c3cccnc3)C[C@H]2CO)o1 | – | inactive: -1.01% | – |
| Cc1ccccc1CSc1nc(-c2ccccc2)nc2c1Cc1c(CO)cnc(C)c1O2 | active: 3.98 µM | – | – |
| COc1cccc(C(=O)NCC(c2ccc(N(C)C)cc2)N2CCOCC2)c1OC (stereo unspecified) | inconclusive: 10 µM [inhibitor, single point] | – | – |
| COc1ccc(/C=C/c2onc(C)c2S(=O)(=O)N2CCC(C(=O)N3CCC(C)CC3)CC2)cc1 | inconclusive: 15.8 µM [inhibitor, single point] | – | – |
| Cc1nc(CNC(=O)CCN2Cc3ccccc3OC(c3ccccc3F)C2)cs1 (stereo unspecified) | inconclusive: 20 µM [inhibitor, single point] | – | – |
| COCc1ccc2c(c1)c(OC(C)(C)C(=O)NCc1ccncc1)nn2CCC(C)C | inconclusive: 11.2 µM [inhibitor, partial curve, poor fit] | – | – |
| COc1cc(C(=O)N2CCC(c3n[nH]c(=O)n3-c3ccccc3)CC2)cc(OC)c1OC | – | – | inactive |
| CC(C)S(=O)(=O)c1oc(-c2ccc(F)cc2)nc1S(=O)(=O)c1ccc(F)cc1 | active: 11.2 µM | – | – |
| O=C1NC2(CCN(Cc3ccc(OC(F)(F)F)cc3)C2)OCc2ccccc21 (stereo unspecified) | inconclusive: 0.794 µM [inhibitor, full curve] | – | – |
| COc1ccc2cc(-c3cn4c(n3)sc3cc(F)ccc34)c(=O)oc2c1 | – | – | inactive |
| CC(=O)NC[C@H]1CCN(S(=O)(=O)c2ccc(F)c(Cl)c2)C[C@H]1N(C)C | inconclusive: 7.08 µM [inhibitor, partial curve, poor fit] | – | – |
| COc1ccc2[nH]cc(CCNC(=O)Nc3ccc(F)cc3)c2c1 | – | inactive: 19.4% | – |
| O=C(c1ccc(CSc2nc3ccncc3n2Cc2ccccc2F)cc1)N1CCCCCC1 | inconclusive: 8.91 µM [inhibitor, single point] | – | – |
| O=C(c1ccc(Cl)cc1)N1CCC(Cc2nc(-c3cnccn3)no2)CC1 | – | inactive: -18.9% | – |
| O=C(NC1CC1)C1c2ccccc2C(=O)N(C2CCCCC2)C12CCCCC2 (stereo unspecified) | inconclusive: 20 µM [inhibitor, single point] | – | – |
| Fc1ccc(Nc2ncc(-c3cccnc3)c3c2OCC3)cc1 | inconclusive: 11.2 µM [inhibitor, single point] | – | – |
| CC(C)NC(=O)c1cnc2n[nH]c(-c3ccccc3)c2n1 | inconclusive: 3.16 µM [inhibitor, full curve, poor fit] | – | – |
| O=C(Cc1ccc(Cl)cc1)N1CCC(c2n[nH]c(=O)n2Cc2ccc(F)cc2)CC1 | inconclusive: 17.8 µM [inhibitor, single point] | – | – |
| CCc1cccc(NC(=O)c2c(C)oc3ncnc(N4CCCCC4)c23)c1 | – | inactive: -10.3% | – |
| O=C(Cc1ccccc1Cl)NCc1nnc2cc(-c3nc(C4CC4)no3)ccn12 | inconclusive: 2 µM [inhibitor, partial curve, poor fit] | – | – |

| SMILES | Potency | activity, negative = inhibition | outcome |
| --- | --- | --- | --- |
| CCOc1ccc(-c2nc(C3CC(=O)N(Cc4ccccc4OC)C3)no2)cc1 (stereo unspecified) | inconclusive: 12.6 µM [inhibitor, single point] | – | – |
| COc1ccc(OC)c(CN2CCOc3ccc(C(=O)NCc4ccccc4F)cc3C2)c1 | inconclusive: 12.6 µM [inhibitor, single point] | – | – |
| CC(C)(C)c1ccc(-c2cc(C[C@H]3CNCC[C@H]3CC(=O)NC3CCCCC3)no2)cc1 | inconclusive: 3.98 µM [inhibitor, full curve, poor fit] | – | – |
| O=C(Cc1ccsc1)N1CCCC(Cc2nc(C3CCOCC3)no2)C1 (stereo unspecified) | – | inactive: -23% | – |
| CN1CC(=O)N(C2CCCNCC2)Cc2c1ncnc2N1CCN(Cc2ccccc2)CC1 (stereo unspecified) | – | inconclusive: -107% [inhibitor] | – |
| Cn1c(COc2cccc(CN3CCCC3)c2Cl)nnc1C1CC(N)C1 (stereo unspecified) | – | inactive: -14% | – |
| CCOc1cc(=O)n2c(c1C(=O)Nc1ccc(Cl)c(F)c1)CCCC2 | inconclusive: 20 µM [inhibitor, single point] | – | – |
| O=C1CC(c2ccccc2)N(Cc2ccncc2)CCCN(C(=O)CCCc2ccccc2)CCN1 (stereo unspecified) | inconclusive: 4.47 µM [inhibitor, partial curve, poor fit] | – | – |
| C#CCNC(=O)c1nc(-c2c(C)cccc2C)c2ccccn12 | inconclusive: 10 µM [inhibitor, partial curve, poor fit] | – | – |
| Cc1cc(C)c2c(C(=O)N(C)Cc3nc(C)no3)cc(C)nc2c1 | – | inactive: -15.2% | – |
| CCOc1ccc2nc(N3CCCC(C(=O)NCc4ccc(OC)cc4)C3)sc2c1 (stereo unspecified) | inconclusive: 12.6 µM [inhibitor, single point] | – | – |
| O=C(c1nc(-c2cccc(C(F)(F)F)c2)c2cnccn12)N1CCN(c2ncccn2)CC1 | inconclusive: 11.2 µM [inhibitor, single point] | – | – |
| CCOc1ccc(C2Cn3nnc(-c4nc(-c5ccccc5C)no4)c3CO2)cc1 (stereo unspecified) | – | – | inactive |
| Cc1ccc(C2Cn3nnc(-c4noc(-c5ccc[nH]5)n4)c3CO2)cc1 (stereo unspecified) | inconclusive: 2.82 µM [inhibitor, full curve] | – | – |
| Cc1cc(N2C[C@H]3CN(C(=O)CN(C)C)C[C@@]3(C(=O)O)C2)nc(N)n1 | – | inactive: 0.765% | – |
| CC(C)N1C[C@@H]2OCC(=O)N(CC3CCCCC3)[C@@H]2C1 | – | – | inactive [at 44.1 µM] |
| Cc1noc(C)c1-c1ccc(S(=O)(=O)N[C@@H]2[C@@H](N)[C@H]3CCO[C@H]32)s1 | – | – | inactive |
| O[C@@H]1C[C@@H](c2nnc3n2CCN(Cc2ccccn2)C3)N(Cc2ccccc2)C1 | – | inactive: 5.98% | – |
| CCOC(=O)N1CCc2c(sc(NCc3cccs3)c2C(=O)Nc2cc(OC)ccc2OC)C1 | inconclusive: 17.8 µM [inhibitor, single point] | – | – |
| Cc1cc(N2CCOC(C(F)(F)F)C2)nc(-c2ccccc2)n1 (stereo unspecified) | inconclusive: 2.82 µM [inhibitor, partial curve] | – | – |
| COc1ncc(-c2cc3c(nc2OC)nc(CC2CC2)n3C)cn1 | inconclusive: 0.398 µM [inhibitor, full curve] | – | – |
| CCCn1cc2c3c(cccc31)CN(C(=O)COc1ccc(F)cc1)CC2 | inconclusive: 8.91 µM [inhibitor, partial curve, poor fit] | – | – |
| Cc1cccc2c1-c1sc(C(=O)NCCCN3CCN(c4cccc(Cl)c4)CC3)cc1CO2 | – | inactive: -23.5% | – |
| O=C1NCC2(CCN([S+](=O)([O-])c3cccs3)CC2)Oc2ccccc21 | – | inactive: -17.5% | – |

| SMILES | Potency | activity, negative = inhibition | outcome |
| --- | --- | --- | --- |
| Cc1ccc2c(c1)c1c(c(=O)n(-c3ccccc3C)c(=O)n1Cc1ccccc1F)n2C | inconclusive: 10 µM [inhibitor, single point] | – | – |
| COc1ccc(NC(=O)CCc2c(C)nc3c(-c4ccccc4)c(C)nn3c2C)cc1Cl | inconclusive: 17.8 µM [inhibitor, partial curve, poor fit] | – | – |
| O=C(CCc1c[nH]c2ccccc12)NC1CCc2n[nH]c(=O)n2CC1 (stereo unspecified) | – | inactive: 1.2% | – |
| O=C(Nc1ccc(Cl)cc1)c1nc2c(o1)CCN(Cc1ccccc1)CC2 | – | – | inactive [at 44.1 µM] |
| COc1ccc(CCCNC(=O)c2ccc(N3CCC(N(C)C)C3)nc2)cc1 (stereo unspecified) | inconclusive: 7.08 µM [inhibitor, partial curve] | – | – |
| Cc1ccccc1-c1nc(Cn2ccnc2C(C)C)c(C)o1 | active: 11.2 µM | – | – |
| CN(C)C(=O)N1CCN(C(=O)c2noc3c2CCCC3)[C@H]2CS(=O)(=O)C[C@H]21 | – | – | inactive |
| COc1ccc(CNc2ncnc3c2CN(C2CCCNCC2)C(=O)CN3C)cc1 (stereo unspecified) | – | inconclusive: -161% [inhibitor] | – |
| Cc1ccc(C(=O)N2CCC3(CCCNC3=O)C2)cc1N1CCNC1=O (stereo unspecified) | – | inactive: -18.1% | – |
| CC(=O)Nc1ccc(CN2C(=O)OC3(CCN(C(=O)c4scnc4C)CC3)C2(C)c2ccccc2)cc1 (stereo unspecified) | – | inactive: -3.02% | – |
| CCN1c2cc(C(=O)Nc3ccc(OC)c(Cl)c3)ccc2C(=O)N2CCCCC21 (stereo unspecified) | – | – | inactive |
| C=CCn1cc(CN2CCOc3c(O)cc(-c4cccc(Cl)c4)cc3C2)cn1 | active: 11.2 µM | – | – |
| COc1cccc(C(=O)N2CC3(Cc4ccccc4CN3[S+](C)(=O)[O-])C2)c1 | inconclusive: 11.2 µM [inhibitor, single point] | – | – |
| O=C1CCCN1CC1CCN(C(=O)c2ccc(N3CC[C@H](O)C3)nc2)CC1 | – | inactive: -0.84% | – |
| COc1ccccc1CN1CCCC2(Cc3ccccc3CNC2=O)C1 (stereo unspecified) | inconclusive: 8.91 µM [inhibitor, single point] | – | – |
| CC(=O)c1cccc(Nc2c3c(nc4nc(-c5cccs5)nn24)CCCC3)c1 | active: 11.2 µM | – | – |
| CC1=NS(=O)(=O)N(CCCN2C(=O)c3ccccc3C2=O)C=C1C(=O)O | – | inactive: -7.13% | – |
| CC(C)c1nc(N(C)Cc2cc(-c3cccnc3)no2)c2cnn(C)c2n1 | inconclusive: 11.2 µM [inhibitor, single point] | – | – |
| C[C@H]1[C@@H]2[C@@H](O)C([C@H](C)C(=O)NCc3cccnc3)CC[C@@]2(C)CC[C@@H]1NC(=O)c1ccncc1 (stereo partly specified) | inconclusive: 17.8 µM [inhibitor, single point] | – | – |
| CC(C)(Oc1nn(Cc2cccc(Cl)c2)c2ccccc12)C(=O)N1CC(O)C1 | – | inactive: -25.2% [at 44.1 µM] | – |
| NCc1ccc(-c2nc(C3CCOC3)nn2Cc2ccccc2)cc1 (stereo unspecified) | active: 4.47 µM | – | – |
| O=C(COc1ccc(F)cc1)NCC(=O)N1CCCCCCNC(=O)CC1c1ccccc1 (stereo unspecified) | – | inactive: -12.4% | – |
| Cn1cc(C(=O)Nc2ccc3c(c2)C(=O)N2CCC[C@H]2C(=O)N3)c2ccccc21 | – | – | inactive |
